Test results taken from paper PMC10991417.
Where two headings read alike, the source gives them in different places. Results are given in words; binding and its absence hold for the method and conditions named. Some entries that bind do so weakly or less than the wild type. Values belong to the molecule of their own block, whether it stands above or below them.

Sequences of proteins named here, by UniProt entry; tags and fusion partners are left off.
UniProt Q7JVP2: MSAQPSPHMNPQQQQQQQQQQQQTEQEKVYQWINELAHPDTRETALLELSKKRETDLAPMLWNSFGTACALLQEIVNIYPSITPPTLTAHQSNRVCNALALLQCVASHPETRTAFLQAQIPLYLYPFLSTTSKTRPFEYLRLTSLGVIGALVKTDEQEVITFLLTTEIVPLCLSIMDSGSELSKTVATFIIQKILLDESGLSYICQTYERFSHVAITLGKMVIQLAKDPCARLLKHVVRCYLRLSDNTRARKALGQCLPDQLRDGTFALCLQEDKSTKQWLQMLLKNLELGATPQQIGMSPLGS
UniProt A8DY81: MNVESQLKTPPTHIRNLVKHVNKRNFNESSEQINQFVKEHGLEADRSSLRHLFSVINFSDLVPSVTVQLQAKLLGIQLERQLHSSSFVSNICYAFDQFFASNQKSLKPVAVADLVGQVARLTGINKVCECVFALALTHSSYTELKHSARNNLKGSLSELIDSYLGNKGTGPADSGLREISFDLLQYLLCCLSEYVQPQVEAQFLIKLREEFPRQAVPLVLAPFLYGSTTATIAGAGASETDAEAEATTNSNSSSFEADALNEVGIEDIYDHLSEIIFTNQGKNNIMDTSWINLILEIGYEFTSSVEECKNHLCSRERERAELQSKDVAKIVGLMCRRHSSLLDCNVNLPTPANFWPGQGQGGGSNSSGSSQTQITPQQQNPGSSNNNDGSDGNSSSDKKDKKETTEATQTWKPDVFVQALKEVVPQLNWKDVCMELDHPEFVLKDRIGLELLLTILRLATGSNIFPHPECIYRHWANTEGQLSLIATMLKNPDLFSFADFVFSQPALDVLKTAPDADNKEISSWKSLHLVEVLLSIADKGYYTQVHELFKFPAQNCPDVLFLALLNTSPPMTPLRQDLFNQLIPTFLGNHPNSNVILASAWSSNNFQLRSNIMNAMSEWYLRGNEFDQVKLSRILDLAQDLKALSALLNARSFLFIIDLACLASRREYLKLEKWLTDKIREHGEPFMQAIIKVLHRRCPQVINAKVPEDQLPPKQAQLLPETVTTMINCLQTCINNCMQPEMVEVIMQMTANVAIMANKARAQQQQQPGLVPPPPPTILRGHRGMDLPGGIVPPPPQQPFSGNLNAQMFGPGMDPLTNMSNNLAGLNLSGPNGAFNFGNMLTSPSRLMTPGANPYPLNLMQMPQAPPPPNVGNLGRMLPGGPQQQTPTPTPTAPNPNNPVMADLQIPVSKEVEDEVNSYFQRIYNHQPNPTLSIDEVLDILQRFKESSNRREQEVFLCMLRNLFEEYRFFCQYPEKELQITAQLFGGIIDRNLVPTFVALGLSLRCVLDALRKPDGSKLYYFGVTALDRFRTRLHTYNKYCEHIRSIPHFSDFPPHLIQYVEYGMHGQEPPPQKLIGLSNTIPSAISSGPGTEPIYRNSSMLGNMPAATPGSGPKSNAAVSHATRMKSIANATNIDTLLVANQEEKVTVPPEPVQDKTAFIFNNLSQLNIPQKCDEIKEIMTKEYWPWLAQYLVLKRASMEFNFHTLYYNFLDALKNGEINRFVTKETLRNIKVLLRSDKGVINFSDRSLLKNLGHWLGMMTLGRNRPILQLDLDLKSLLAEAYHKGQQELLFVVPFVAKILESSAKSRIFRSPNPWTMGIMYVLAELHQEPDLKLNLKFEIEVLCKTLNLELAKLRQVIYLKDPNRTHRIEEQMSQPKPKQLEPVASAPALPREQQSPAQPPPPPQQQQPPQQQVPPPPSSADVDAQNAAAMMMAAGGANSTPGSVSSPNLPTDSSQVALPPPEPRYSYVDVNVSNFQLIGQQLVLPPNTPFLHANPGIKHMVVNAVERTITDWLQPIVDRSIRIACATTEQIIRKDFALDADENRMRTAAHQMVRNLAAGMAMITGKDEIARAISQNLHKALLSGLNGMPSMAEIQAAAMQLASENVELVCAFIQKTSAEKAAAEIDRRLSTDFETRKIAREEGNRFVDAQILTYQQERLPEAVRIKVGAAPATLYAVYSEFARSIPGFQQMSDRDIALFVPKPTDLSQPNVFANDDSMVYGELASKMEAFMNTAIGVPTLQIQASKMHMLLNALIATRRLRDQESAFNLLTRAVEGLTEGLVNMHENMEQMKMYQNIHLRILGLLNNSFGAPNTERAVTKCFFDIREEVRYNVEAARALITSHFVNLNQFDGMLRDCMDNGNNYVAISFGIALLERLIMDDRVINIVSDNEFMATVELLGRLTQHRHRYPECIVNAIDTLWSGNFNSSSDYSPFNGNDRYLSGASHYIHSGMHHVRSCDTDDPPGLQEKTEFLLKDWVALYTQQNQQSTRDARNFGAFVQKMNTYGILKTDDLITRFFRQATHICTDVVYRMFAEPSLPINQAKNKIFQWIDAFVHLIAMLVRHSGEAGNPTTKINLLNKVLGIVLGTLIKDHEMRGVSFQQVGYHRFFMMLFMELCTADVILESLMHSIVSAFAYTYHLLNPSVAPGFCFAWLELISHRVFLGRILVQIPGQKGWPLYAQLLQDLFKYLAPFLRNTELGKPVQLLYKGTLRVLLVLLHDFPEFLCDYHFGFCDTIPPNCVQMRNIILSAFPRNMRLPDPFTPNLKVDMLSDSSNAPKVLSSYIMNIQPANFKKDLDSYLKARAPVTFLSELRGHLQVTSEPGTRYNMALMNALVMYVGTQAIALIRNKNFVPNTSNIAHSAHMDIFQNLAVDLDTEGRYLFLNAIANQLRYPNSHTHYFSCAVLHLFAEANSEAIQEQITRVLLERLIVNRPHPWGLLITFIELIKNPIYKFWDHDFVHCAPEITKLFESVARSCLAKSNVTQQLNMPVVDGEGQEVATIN
UniProt Q7K126: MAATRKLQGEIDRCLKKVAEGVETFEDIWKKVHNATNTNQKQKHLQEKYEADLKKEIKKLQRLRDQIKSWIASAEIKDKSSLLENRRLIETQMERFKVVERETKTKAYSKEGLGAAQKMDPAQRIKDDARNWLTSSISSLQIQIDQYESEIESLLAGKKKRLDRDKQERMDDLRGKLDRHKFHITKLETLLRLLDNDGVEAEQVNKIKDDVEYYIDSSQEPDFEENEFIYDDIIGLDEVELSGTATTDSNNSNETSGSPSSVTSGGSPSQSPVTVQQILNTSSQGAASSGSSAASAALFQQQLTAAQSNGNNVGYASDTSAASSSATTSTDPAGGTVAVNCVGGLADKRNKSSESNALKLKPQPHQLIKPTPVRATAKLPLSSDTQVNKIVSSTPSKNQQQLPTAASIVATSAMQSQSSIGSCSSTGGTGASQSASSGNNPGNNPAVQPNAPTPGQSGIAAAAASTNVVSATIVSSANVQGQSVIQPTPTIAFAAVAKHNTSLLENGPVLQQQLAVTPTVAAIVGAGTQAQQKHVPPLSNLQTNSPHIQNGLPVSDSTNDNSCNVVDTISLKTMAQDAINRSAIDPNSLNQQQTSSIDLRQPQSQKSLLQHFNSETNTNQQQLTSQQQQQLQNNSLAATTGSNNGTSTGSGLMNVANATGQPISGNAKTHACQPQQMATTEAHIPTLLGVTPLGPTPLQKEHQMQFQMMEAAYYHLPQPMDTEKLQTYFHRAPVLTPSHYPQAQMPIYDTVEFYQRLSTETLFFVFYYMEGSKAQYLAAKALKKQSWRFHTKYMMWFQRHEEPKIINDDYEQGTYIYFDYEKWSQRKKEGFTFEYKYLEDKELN
UniProt O02374: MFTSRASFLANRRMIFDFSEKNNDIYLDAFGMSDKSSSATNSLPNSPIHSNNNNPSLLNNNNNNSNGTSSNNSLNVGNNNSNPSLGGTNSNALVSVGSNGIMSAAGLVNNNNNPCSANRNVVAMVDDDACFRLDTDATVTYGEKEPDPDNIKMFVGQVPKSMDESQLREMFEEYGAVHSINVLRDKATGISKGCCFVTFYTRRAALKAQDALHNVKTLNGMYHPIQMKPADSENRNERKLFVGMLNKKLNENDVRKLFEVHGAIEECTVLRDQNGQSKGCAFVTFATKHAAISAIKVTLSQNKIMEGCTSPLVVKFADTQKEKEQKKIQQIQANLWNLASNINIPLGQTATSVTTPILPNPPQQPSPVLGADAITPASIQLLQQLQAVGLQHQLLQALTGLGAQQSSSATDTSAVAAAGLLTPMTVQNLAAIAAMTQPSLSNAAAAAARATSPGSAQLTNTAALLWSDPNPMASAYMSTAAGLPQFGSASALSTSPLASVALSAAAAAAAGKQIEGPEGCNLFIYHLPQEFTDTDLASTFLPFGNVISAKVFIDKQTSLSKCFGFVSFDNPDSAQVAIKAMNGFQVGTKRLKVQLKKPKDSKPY

Key:
[1] = target: T1, Nanos (Drosophila) (Drosophila) (UniProt P25724); test: ReLo relocalization assay (live-cell confocal fluorescence microscopy); two tested proteins with Cup coexpressed as a third protein in S2R+ cells
T1 sequence: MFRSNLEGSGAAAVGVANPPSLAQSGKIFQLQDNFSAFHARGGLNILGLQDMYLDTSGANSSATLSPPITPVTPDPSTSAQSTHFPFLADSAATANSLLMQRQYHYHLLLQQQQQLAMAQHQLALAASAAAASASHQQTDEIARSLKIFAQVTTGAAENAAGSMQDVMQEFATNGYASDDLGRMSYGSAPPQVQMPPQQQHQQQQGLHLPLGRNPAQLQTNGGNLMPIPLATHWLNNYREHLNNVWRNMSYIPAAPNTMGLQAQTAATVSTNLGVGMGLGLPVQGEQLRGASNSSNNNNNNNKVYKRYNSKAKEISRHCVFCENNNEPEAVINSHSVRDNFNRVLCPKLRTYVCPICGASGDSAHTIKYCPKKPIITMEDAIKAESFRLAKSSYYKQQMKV

[2] = target: CAF40 (Drosophila CCR4-NOT complex subunit) (Drosophila) (UniProt Q7JVP2); test: ReLo relocalization assay (live-cell confocal fluorescence microscopy); pairwise; membrane anchor (PH or OST4) and which partner was anchored are not given; S2R+ cells cotransfected with two plasmids, imaged after 48 h at 25 °C
[3] = target: NOT1 (Drosophila CCR4-NOT complex subunit) (Drosophila) (UniProt A8DY81); test: as above
[4] = target: T2, NOT2 (Drosophila CCR4-NOT complex subunit) (Drosophila) (UniProt Q94547); test: as above
T2 sequence: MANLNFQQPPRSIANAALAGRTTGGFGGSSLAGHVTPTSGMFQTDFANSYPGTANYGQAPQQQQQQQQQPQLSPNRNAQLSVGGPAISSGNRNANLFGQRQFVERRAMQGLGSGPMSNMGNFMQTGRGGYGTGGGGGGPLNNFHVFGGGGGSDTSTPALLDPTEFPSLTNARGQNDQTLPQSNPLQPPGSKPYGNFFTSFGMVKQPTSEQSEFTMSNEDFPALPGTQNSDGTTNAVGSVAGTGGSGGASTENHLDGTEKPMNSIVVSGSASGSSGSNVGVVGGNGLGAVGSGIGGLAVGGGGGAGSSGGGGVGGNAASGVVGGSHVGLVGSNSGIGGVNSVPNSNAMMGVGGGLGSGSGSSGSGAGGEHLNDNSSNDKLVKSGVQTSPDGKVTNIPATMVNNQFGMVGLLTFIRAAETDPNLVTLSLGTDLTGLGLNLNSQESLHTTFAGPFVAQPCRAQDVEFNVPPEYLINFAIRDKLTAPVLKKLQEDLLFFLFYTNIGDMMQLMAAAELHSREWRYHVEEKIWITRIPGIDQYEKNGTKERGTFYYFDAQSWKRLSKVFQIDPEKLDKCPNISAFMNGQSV

[5] = target: NOT3 (Drosophila CCR4-NOT complex subunit) (Drosophila) (UniProt Q7K126); test: as above
[6] = target: T1, Nanos (Drosophila) (Drosophila); test: as above
[7] = target: CAF40 (Drosophila CCR4-NOT complex subunit) (Drosophila) (UniProt Q7JVP2); test: ReLo relocalization assay (live-cell confocal fluorescence microscopy); pairwise; one partner anchored to the plasma membrane by the PH domain of rat PLCδ1 and fused to mCherry, the other fused to EGFP/mEGFP; S2R+ cells cotransfected with two plasmids, imaged after 48 h at 25 °C
[8] = target: NOT1 (Drosophila CCR4-NOT complex subunit) (Drosophila) (UniProt A8DY81); test: as above
[9] = target: NOT3 (Drosophila CCR4-NOT complex subunit) (Drosophila) (UniProt Q7K126); test: as above
Bruno = Bruno (UniProt O02374); test: ReLo relocalization assay (live-cell confocal fluorescence microscopy); pairwise; membrane anchor (PH or OST4) and which partner was anchored are not given; S2R+ cells cotransfected with two plasmids, imaged after 48 h at 25 °C
[10] = target: CAF40 (Drosophila CCR4-NOT complex subunit) (Drosophila) (UniProt Q7JVP2); test: as above; remark: listed apart in the source
[11] = target: T3, DEAD-box RNA helicase Me31B (UniProt P23128); test: as above
T3 sequence: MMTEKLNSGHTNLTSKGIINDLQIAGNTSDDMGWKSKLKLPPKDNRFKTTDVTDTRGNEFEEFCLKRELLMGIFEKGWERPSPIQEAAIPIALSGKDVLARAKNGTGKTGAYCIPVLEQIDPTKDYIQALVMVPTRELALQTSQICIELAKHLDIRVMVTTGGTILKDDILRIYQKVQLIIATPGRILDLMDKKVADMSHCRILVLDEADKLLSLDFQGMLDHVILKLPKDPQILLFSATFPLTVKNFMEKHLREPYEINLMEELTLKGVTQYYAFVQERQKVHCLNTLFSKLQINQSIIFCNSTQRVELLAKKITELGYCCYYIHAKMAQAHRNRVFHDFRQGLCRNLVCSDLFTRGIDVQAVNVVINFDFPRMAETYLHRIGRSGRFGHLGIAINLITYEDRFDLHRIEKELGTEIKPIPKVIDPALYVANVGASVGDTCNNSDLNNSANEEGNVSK

[12] = target: NOT1 (Drosophila CCR4-NOT complex subunit) (Drosophila) (UniProt A8DY81); test: as above; remark: listed apart in the source
[13] = target: T2, NOT2 (Drosophila CCR4-NOT complex subunit) (Drosophila); test: as above; remark: listed apart in the source
[14] = target: NOT3 (Drosophila CCR4-NOT complex subunit) (Drosophila) (UniProt Q7K126); test: as above; remark: listed apart in the source
[15] = target: T1, Nanos (Drosophila) (Drosophila); test: as above; remark: listed apart in the source
[16] = target: T4, eukaryotic translation initiation factor 4E (eIF4E) (Drosophila) (UniProt P48598); test: as above
T4 sequence: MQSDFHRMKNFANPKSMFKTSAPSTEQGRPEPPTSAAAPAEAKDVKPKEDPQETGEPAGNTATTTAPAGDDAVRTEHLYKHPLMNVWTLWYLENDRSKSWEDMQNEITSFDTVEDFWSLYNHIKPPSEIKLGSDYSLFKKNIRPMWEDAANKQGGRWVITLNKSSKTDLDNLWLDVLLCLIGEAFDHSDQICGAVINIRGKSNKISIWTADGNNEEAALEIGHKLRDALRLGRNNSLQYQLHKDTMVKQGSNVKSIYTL

binding [2]: no binding | binding [3]: no binding | binding [4]: no binding | binding [5]: no binding | binding [6]: binds
Molecule: Bruno (from UniProt O02374 1-604)
binding [1]: no binding (condition: with Cup coexpressed)

binding [7]: no binding | binding [8]: binds | binding [9]: binds
B1: NOT2 (Drosophila CCR4-NOT complex subunit) (protein, UniProt Q94547 1-585)
chain: T2 sequence

binding (Bruno): binds | binding [10]: no binding | binding [11]: binds | binding [12]: no binding | binding [13]: no binding | binding [14]: no binding | binding [15]: binds | binding [16]: binds
B2: Cup (Drosophila) (protein, UniProt Q9VMA3 1-1117)
chain: MQMAEAEQENGAGALKIATNAGATDRPAHQQLPLPVEDQQDEVLTPAEKGKFEYPPPPPPPTPVQAPLATKATALNASQEHDDDEANSEKWEDPCAPPPPPPLPTSAFLATGLGYLKLPAFKLKDALEKAITKLEANKRTLKASPESSRSIKNKNVVALEMLPRRSNPETIGDGSMLASTSTAVMLQTKKPAVIVEMERRCKIINLLAKQNQILESISGEAIPMHGPSKHLHEDEGLTLQVLSARASTPYTQPSSMLSCTAVSCDLEHDSPRKQVASKEAVPEQQSSQVQQKRPPSTGIHKPGSLRAPKAVRPTTAPVVSSKPVKSYTRSRLMDIRNGMFNALMHRSKESFVMPRIATCDDIELEGRLRRMNIWRTSDGTRFRTRSTTANLNMNNNNNNECMPAFFKNKNKPNLISDESIIQSQPPQPQTEFQDPAIVNQRRIGSGRLNHSKWGYNDEDYHSYHNGKSQHMEEVNSKNSKNMTVLQFFDNGEISSQPQRRPNTPVMGMSINRSENDTLHSNESSEDLSRANENYVKRVMSGFLVVSKPKSRDVEDRHHRRYRNQNEEPEWFSCGPTSRLDTIELCGFDEDEEKMLKEGNKNHGLGETERETSKQKMDHKYKWTHAEPMGRSKYMPKHDTNNNHNVENMNNVMATEHQQQKEEKRPGSGRSFQFDKFNQSQQNYESSSYVNHQQPPQTQPQQMQQQSNTNTNNSKFMSFFANEGNSSSSSLNEFFKQAINQGHGNNPEQPKSLGHIGQMPSVDQLEAKWRRNSLNNVGETANKQTDNFQKLIGSLSSAKPQSQAVGYDAISNFIMQQQQYQQQQQKQHLIIQQQQQHTAFLASLQLKAILGRADTQLLLLRLTKGEISKHGLLVQLANPRLTDMDREAITAVLQFTNTQQQQQQHKQQLDMLSSTVIASQLQNLHNLAIVQQTLAARQQPQHNPQTQAPHQLSQEDLQAHANVIMRNAVMKRKIEEQTSKLINGGAKHQAQQQYLNRGQQRQARPDANSNALLHALISGGGNNHASGYPMNGQPQKHHSNLRFGDNQNFQSFESNQPHFATQYKQQYQQSQQQHPHQQPQQLNSLHQNNAGAVNSFNKAQMQAQSAISMLPNSGDEFH
